{
  "source": "paper PMC12136788",
  "binders": {"B1": {"name": "chr6:105099394:105099495:-|3pUTR|ENSG00000112276|msi1|FALSE|unique (ssRNA)", "RNA": "GGGAGUUCUACAGUCCGACGAUCUCCGUUGAAUGAAGCUCAUUGAUUGGCCAUGCUGGUCAUGUCUAUUUUGCUUCAUCCACUAGAACCAACUUUGAGUCAGUCUCCUGUUACGUUAAAUGGCUAAGAAAAGUUCCAAAUGAACAACAGAGGAUUGAGCAUCA"}, "B2": {"name": "chr2:37644049:37644150:-|3pUTR|ENSG00000163171|msi1|FALSE|unique (ssRNA)", "RNA": "GGGAGUUCUACAGUCCGACGAUCUUAGGACAACUAACCAAGUAGACGAAACAAGUUCCCCUAGGCAGGGGUGUCCAAUAUUUUAGCUUCCCUGGACCGCAUUGGAAGAAUUUUCUUGGGCCACAUGUAAAACACACUAACACUCAACAGAGGAUUGAGCAUCA"}, "B3": {"name": "chrX:100644401:100644502:+|5pUTR|ENSG00000102359|unk|total|mutant (ssRNA)", "RNA": "GGGAGUUCUACAGUCCGACGAUCUUAACAGAAUCCCGGAGGCCGGGACAGACCAGGAGCCACUCGUUCCCGGAAUGUUAAAGCCGAAGGUUUUUUCCAAUUGAUGAGAGGAGCAGAGAGGAAGGAGAAAGAGGAGGAGAGAGACAACAGAGGAUUGAGCAUCA"}, "B4": {"name": "chr6:109481629:109481730:-|CDS|ENSG00000112365|unk|FALSE|unique (ssRNA)", "RNA": "GGGAGUUCUACAGUCCGACGAUCGCUCAGUUCUUAAAAGUCUAUGACCUGGUAAAGGCUUACACAGACUUCCAAAAUAAUCAUAGCUCCCCAAAGCCAACAACUUUGAACACUGCUGGUGCCCCAGUGGUUGUUAUCUCUAAUCAACAGAGGAUUGAGCAUCA"}, "B5": {"name": "chr10:123051058:123051159:+|CDS|ENSG00000196177|unk|FALSE|unique (ssRNA)", "RNA": "GGGAGUUCUACAGUCCGACGAUCCAAGUGGCUCACGUGGCCACCCAGCUGGAAGCUGCAAGAUUACUAACAUACAAUGCUGCUAGGCUUUUAGAAGCUGGAAAGCCAUUCAUAAAAGAAGCGUCAAUGGCCAAAUACUAUGCACAACAGAGGAUUGAGCAUCA"}, "B6": {"name": "chr11:92354873:92354974:+|CDS|ENSG00000165323|unk|total|mutant (ssRNA)", "RNA": "GGGAGUUCUACAGUCCGACGAUCGUCACUCUUAAAGUUUUUUCCGAUGAUGUCAAUGACUGCUCCCCAGCUUUCAUUCCCAGCCGCUACCGUGUGAAGGUUCUUGAAGAUCUCCCUGUUGGCACUGUCAUUGCUUGGCUUGAGCAACAGAGGAUUGAGCAUCA"}, "B7": {"name": "chr1:15430058:15430159:+|3pUTR|ENSG00000142634|msi1|FALSE|unique (ssRNA)", "RNA": "GGGAGUUCUACAGUCCGACGAUCCCUGGAAGCUACGCGGACUUGCAGAGGUUUUAUUUUUUGGCCUUAGAAUCUGCAGAAAUUAGGAGGCACCGAGCCCAGCGCAGCAGCCUCGGACCCGGAUUGCGUUUGCCUUAGCGGAUACAACAGAGGAUUGAGCAUCA"}, "B8": {"name": "ENSG00000070961:be:win_701|CDS|ENSG00000070961|bound_else_gene|NA|bound_elsewhere_windowed (ssRNA)", "RNA": "GGGAGUUCUACAGUCCGACGAUCACGAUCUUAAAAUUGAUGAAAGCUCAUUGACUGGUGAAUCAGAUCAUGUUAAAAAGUCUUUAGAUAAGGAUCCCUUACUUCUAUCAGGUACUCAUGUAAUGGAAGGCUCUGGAAGAAUGGCAACAGAGGAUUGAGCAUCA"}, "B9": {"name": "chr4:42087128:42087229:+|3pUTR|ENSG00000014824|msi1|total|mutant (ssRNA)", "RNA": "GGGAGUUCUACAGUCCGACGAUCAUUUUGUAUAAUACCGUUCAUACUGUGUCUGUGAGUUUCUUCAGUUACAAAUGGGCAUUCCGUACCGUUAUAUUGACUAUAACAUGUAAGUAAACCGCUUUCUACUGACCCUAAGUUAUCCAACAGAGGAUUGAGCAUCA"}, "B10": {"name": "chrX:8790794:8791172:-|three_prime_utr|ENSG00000183304|control|control|control (ssRNA)", "RNA": "GGGAGUUCUACAGUCCGACGAUCCAACUUGAGCUACAGUAAACUACAUGACAGUGUUUUGAUAAUUGUUGUAUAAAUCGGUAUAGCUCCUCUGUCACUUGUCUGUUAAAUGCCAGACCUCGUUUCUAUGAUCUGUUGAAUGAACAACAGAGGAUUGAGCAUCA"}, "B11": {"name": "chr1:113128187:113128288:+|3pUTR|ENSG00000198799|unk|FALSE|unique (ssRNA)", "RNA": "GGGAGUUCUACAGUCCGACGAUCUCAUACUUAUUUUCAAUCCUAAGUGUUCUCCCAUGGGCAGCAGCACUUCUUGAGCUGUUUAGUACUGCCACACCUUUUUAUGUCUUUACUAUGUCAGCCUCUGAUCAUUUUCACUUUGAACAACAGAGGAUUGAGCAUCA"}, "B12": {"name": "chr6:36925625:36925726:+|3pUTR|ENSG00000198663|msi1|total|mutant (ssRNA)", "RNA": "GGGAGUUCUACAGUCCGACGAUCACUUCUCAAGUUAAUUUUGAUAAGCAGAAUCUACUACUGGCCAGAGCGACAGGAGUGGCCCGGGGUUGCCAGCCAGUCCCUUUCUGAUGAUCAAGGCCCUGCACAGCAGGAUGCCACAGGCAACAGAGGAUUGAGCAUCA"}, "B13": {"name": "chr15:99139316:99139576:-|CDS|ENSG00000103852|control|control|control (ssRNA)", "RNA": "GGGAGUUCUACAGUCCGACGAUCCUCUCAUUCAAGGGAGACCUUAGUUUCCUGCUCUCAGCGACACUUCCAUAGCCUCAUGAUAGCUGCUUGGUGUUCUACAGUGUCUCCAGAUCCAGACCCUCUUAUAUGGACCGCAGGACACAACAGAGGAUUGAGCAUCA"}, "B14": {"name": "chr12:442458:442559:+|3pUTR|ENSG00000120647|unk|total|mutant (ssRNA)", "RNA": "GGGAGUUCUACAGUCCGACGAUCCCUGAGCAGAGCCUGAAUUACGUUUUUGGGCAAUUUCAUGGUGUUUCACCAGAGGGCGCCCGAGACUCAAACGAAAUGUCCAUCUGGAAAGAUUCGGGAGACACUUUGCCGAGGGGAUGACAACAGAGGAUUGAGCAUCA"}, "B15": {"name": "chr5:72208420:72208520:+|3pUTR|ENSG00000131711|msi1_unk|FALSE|overlapping (ssRNA)", "RNA": "GGGAGUUCUACAGUCCGACGAUCCUCAUGAUCAUGACCUUUUUGGUAGUAUUCUUAAACAAAAUUCUACAGAGACUAAAUGUUAGCGAUGAUCCUCCAUUUUCAAUUUUAACCAAUUCUGUCCCCUUUCUCAAAACCCUGAGCCAACAGAGGAUUGAGCAUCA"}, "B16": {"name": "chrX:52696895:52697518:-|three_prime_utr|ENSG00000241476|control|control|control (ssRNA)", "RNA": "GGGAGUUCUACAGUCCGACGAUCGAACGUGGUGACCUUUCACGAACAUGGGCAUGGCUGCGGACCCCUCGUCAUCAGGUGCAUAGCAAGUGAAAGCAAGUGUUCACAACAGUGAAAAGUUGAGCGUCAUUUUUCUUAGUGUGCCAACAGAGGAUUGAGCAUCA"}, "B17": {"name": "chr2:119156242:119156801:-|three_prime_utr|ENSG00000144119|control|control|control (ssRNA)", "RNA": "GGGAGUUCUACAGUCCGACGAUCCAAGGGAGGAAGGGACGCCCGAGCCCUUGAGGCGGCGGCACAGACUUUGCAAACCUGAUUAGACUGGACAGGCAGGGCCGGGAGCCUGCCCUCCUCAGACAGCCUCCUCCCAGUGCCUAGCAACAGAGGAUUGAGCAUCA"}, "B18": {"name": "ENSG00000136451:be:win_2701|3pUTR|ENSG00000136451|bound_else_gene|NA|bound_elsewhere_windowed (ssRNA)", "RNA": "GGGAGUUCUACAGUCCGACGAUCUGUAAAUAUGGACAUCACUUUUUUUUUCUUUGAGAAAACACUUGUAUCAGCUUUGUGGUGUUUUCAGGGAGACAGCUGUCUGCAUUCCCUGUAGAAACCCAGCAAUGAUUAUGCACGUUGCAACAGAGGAUUGAGCAUCA"}, "B19": {"name": "chr19:2274630:2275679:-|three_prime_utr|ENSG00000188305|control|control|control (ssRNA)", "RNA": "GGGAGUUCUACAGUCCGACGAUCACACCUGGUCCAGGCCUGCCCAGGAGGCAGGGCUGGGGCUGAGGUCAGCGUCUCCAUGAUAGCCAAGACACCCUCUUCCUGCAGAGUCCAGGAGCGCAGCAGAGAGAGCAAUGCCCCACUCAACAGAGGAUUGAGCAUCA"}, "B20": {"name": "chr17:77200548:77200649:+|CDS|ENSG00000129657|msi1|total|mutant (ssRNA)", "RNA": "GGGAGUUCUACAGUCCGACGAUCUAUUGACAAAGCCAGAGAGAUCAUGUGUCAGUCUUUGACGUGGAGAAAGCAGCAUCAGGCCGACUACAUUCUUGAAACCUGGACCCCUCCUCAGGUCCUUCAGGAUUACUACGCGGGAGGCAACAGAGGAUUGAGCAUCA"}, "B21": {"name": "chr12:96943601:96943709:+|CDS|ENSG00000139350|unk|FALSE|unique (ssRNA)", "RNA": "GGGAGUUCUACAGUCCGACGAUCAACUCAGUGUUUCCUCCAAGAAAAAAUCCAGUAACUUCAAGUACUUCAGUAUUGCAUUCUAGUCCUCUUAAUGUUUUUAUGGGAUCUCCAGGGAAAGAGGAAAAUGAAAACCGUGAUCUACAACAGAGGAUUGAGCAUCA"}, "B22": {"name": "chr1:108699644:108699745:+|CDS|ENSG00000134186|unk|FALSE|bound_elsewhere (ssRNA)", "RNA": "GGGAGUUCUACAGUCCGACGAUCGAUUCCAAGAAAGAGAAAAAACACAGUAGAAGCAGAAGCAGAGAAAGGAAACACAGAAGUAGGAGUCGAAGUAGAAAUGCAGGGAAACGAAGUAGAAGUAGAAGCAAAGAGAAAUCAAGUCAACAGAGGAUUGAGCAUCA"}},
  "note": "The other results are listed elsewhere or left out.",
  "data": [
    {"molecular_target": "T1, UNK ZnF1-6 (called full-length) (human, UniProt Q9C0B0 30-357)", "T1 sequence": "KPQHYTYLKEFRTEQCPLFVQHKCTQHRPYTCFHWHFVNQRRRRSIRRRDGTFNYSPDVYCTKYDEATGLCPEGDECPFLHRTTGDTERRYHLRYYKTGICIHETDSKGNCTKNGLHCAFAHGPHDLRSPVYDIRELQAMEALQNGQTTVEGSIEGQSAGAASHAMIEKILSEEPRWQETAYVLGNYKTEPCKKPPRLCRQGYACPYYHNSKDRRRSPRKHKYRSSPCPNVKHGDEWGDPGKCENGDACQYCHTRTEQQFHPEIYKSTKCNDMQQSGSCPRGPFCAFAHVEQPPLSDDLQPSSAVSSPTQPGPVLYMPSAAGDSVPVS", "test": "nsRBNS (natural sequence RNA bind-n-seq); RBNS binding buffer (assumed for nsRBNS): 25 mM Tris pH 7.5, 150 mM KCl, 3 mM MgCl2, 0.01% Triton X-100, 500 ug/ml BSA, 20 U/ml SUPERase-In, 4 C; UNK is unkempt and MSI1 is Musashi-1; names of the RNAs are library labels; protein concentration not given here; high values mean tight binding", "units": {"binding signal": "enrichment R"}, "values": [
      {"binder": "B1", "binding signal": 0.203},
      {"binder": "B2", "binding signal": 1.32},
      {"binder": "B3", "binding signal": 0.79},
      {"binder": "B4", "binding signal": 0.437},
      {"binder": "B5", "binding signal": 0.436},
      {"binder": "B6", "binding signal": 0.655},
      {"binder": "B7", "binding signal": 1.29},
      {"binder": "B8", "binding signal": 0.342},
      {"binder": "B9", "binding signal": 0.416},
      {"binder": "B10", "binding signal": 0.374},
      {"binder": "B11", "binding signal": 0.646},
      {"binder": "B12", "binding signal": 0.837},
      {"binder": "B13", "binding signal": 0.826},
      {"binder": "B14", "binding signal": 0.768},
      {"binder": "B15", "binding signal": 1.01},
      {"binder": "B16", "binding signal": 0.593},
      {"binder": "B17", "binding signal": 0.798},
      {"binder": "B18", "binding signal": 0.369},
      {"binder": "B19", "binding signal": 0.662},
      {"binder": "B20", "binding signal": 0.642},
      {"binder": "B21", "binding signal": 0.588},
      {"binder": "B22", "binding signal": 1.2}
    ]}
  ]
}
